Source: the supplement of paper PMC6089552
Values joined by “and” are separate entries in the source; they are usually repeats but may differ in a detail not shown here. Identical values can stand only once. In all, about 3,200 compounds went through this assay and about 300 (9.4%) showed activity. Only a part is listed here, and it is no random draw.

Tested on: A673/TR/shEF
Experiment: cell viability (LOESS-normalised, relative to median of negative controls) (log2 ratio); higher = more viable cells (less compound effect), active = hit call of the paper (over 3 MAD below the median)
Settings: treatment time: 72 h
Procedure, shortened: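 Viability of A673/TR/shEF Ewing sarcoma cells was determined by CellTiter-Glo luminescence. The cells, at 1,500 per well in 384-well plates, were grown with or without doxycycline from 24 h before compound addition to switch on EWS-FLI1 shRNA knockdown, then exposed for three days to library compounds at two or more concentrations or to DMSO controls. Signals were LOESS-corrected plate by plate, normalised to the negative-control median and log2-transformed.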

[1] = 0.25 µM, library screen: screen1, EWS-FLI1 expression: high (no doxycycline)
[2] = 0.25 µM, library screen: screen1, EWS-FLI1 expression: low (doxycycline-induced shRNA knockdown)
[3] = 2.5 µM, library screen: screen1, EWS-FLI1 expression: high (no doxycycline)
[4] = 2.5 µM, library screen: screen1, EWS-FLI1 expression: low (doxycycline-induced shRNA knockdown)
[5] = 0.25 µM, library screen: screen2, EWS-FLI1 expression: high (no doxycycline)
[6] = 0.25 µM, library screen: screen2, EWS-FLI1 expression: low (doxycycline-induced shRNA knockdown)
[7] = 2.5 µM, library screen: screen2, EWS-FLI1 expression: high (no doxycycline)
[8] = 2.5 µM, library screen: screen2, EWS-FLI1 expression: low (doxycycline-induced shRNA knockdown)
[9] = 0.025 µM, library screen: screen1, EWS-FLI1 expression: high (no doxycycline)
[10] = 0.025 µM, library screen: screen1, EWS-FLI1 expression: low (doxycycline-induced shRNA knockdown)
[11] = 25 µM, library screen: screen1, EWS-FLI1 expression: high (no doxycycline)
[12] = 25 µM, library screen: screen1, EWS-FLI1 expression: low (doxycycline-induced shRNA knockdown)
[13] = 0.103 µM, library screen: screen3, EWS-FLI1 expression: high (no doxycycline)
[14] = 0.103 µM, library screen: screen3, EWS-FLI1 expression: low (doxycycline-induced shRNA knockdown)
[15] = 0.308 µM, library screen: screen3, EWS-FLI1 expression: high (no doxycycline)
[16] = 0.308 µM, library screen: screen3, EWS-FLI1 expression: low (doxycycline-induced shRNA knockdown)
[17] = 0.926 µM, library screen: screen3, EWS-FLI1 expression: high (no doxycycline)
[18] = 0.926 µM, library screen: screen3, EWS-FLI1 expression: low (doxycycline-induced shRNA knockdown)
[19] = 2.8 µM, library screen: screen3, EWS-FLI1 expression: high (no doxycycline)
[20] = 2.8 µM, library screen: screen3, EWS-FLI1 expression: low (doxycycline-induced shRNA knockdown)
[21] = 8.3 µM, library screen: screen3, EWS-FLI1 expression: high (no doxycycline)
[22] = 8.3 µM, library screen: screen3, EWS-FLI1 expression: low (doxycycline-induced shRNA knockdown)
[23] = 25 µM, library screen: screen3, EWS-FLI1 expression: high (no doxycycline)
[24] = 25 µM, library screen: screen3, EWS-FLI1 expression: low (doxycycline-induced shRNA knockdown)

Measured: cell viability (log2)

CC(=O)CC1CCCCN1 (stereo not given)
inactive: [1] 0.0906 | [2] -0.00634 | [3] 0.0756 | [4] -0.083

C[C@]12C=CC(=O)C=C1CC[C@@H]1[C@@H]2CC[C@]2(C)C(=O)CC[C@@H]12
inactive: [1] 0.0143 | [2] 0.0386 | [3] -0.0049 | [4] 0.0547

COc1ccc2c(c[n+](C)c3c4cc5c(cc4ccc23)OCO5)c1OC
inactive: [5] 0.273 | [6] 0.121 | [7] 0.106 | [8] 0.0124

c1ccc2c(c1)[I+]c1ccccc1-2
active: [5] -1.37 | [6] -0.118 | [7] -1.4 | [8] -0.388

O=[N+]([O-])c1cc([As](=O)(O)O)ccc1O
inactive: [1] 0.0332 | [2] 0.0388 | [3] 0.152 | [4] 0.13

c1cncc(C2=NCCC2)c1
inactive: [1] 0.0511 | [2] -0.0382 | [3] 0.133 | [4] 0.104

CCOP(=S)(OCC)SCCSCC
inactive: [1] -0.0493 | [2] 0.0698 | [3] 0.0164 | [4] 0.0401

COc1cc2c3cc1Oc1cc(ccc1O)C[C@H]1c4c(cc(OC)c(O)c4Oc4ccc(cc4)C[C@@H]3N(C)CC2)CCN1C
inactive: [1] 0.0853 | [2] 0.0939 | [3] 0.083 | [4] 0.276

N#CC(C#N)=Cc1ccc(O)cc1
inactive: [9] 0.0481 | [10] 0.0237 | [1] 0.0596 | [2] 0.0262 | [3] 0.0426 | [4] 0.0755 | [11] 0.0734 | [12] 0.0191

CC1(C)C(C=C(Cl)Cl)C1C(=O)OC(C#N)c1cccc(Oc2ccccc2)c1 (stereo not given)
inactive: [9] 0.0827 | [10] 0.0478 | [1] 0.102 | [2] -0.0402 | [3] 0.0354 | [4] -0.0899
active: [11] -0.287 | [12] -0.665

CO[C@@H]1C[C@@H](C[C@H]2CC[C@H](C)[C@H]([C@@H](C)C(=O)O)O2)O[C@]2(O[C@](C)([C@H]3CC[C@@](C)([C@@H]4O[C@@H]([C@H]5O[C@@](O)(CO)[C@H](C)C[C@@H]5C)C[C@@H]4C)O3)C[C@H]2C)[C@@H]1C
active: [3] -0.685

CC(C)(C)c1o[nH]c(=O)c1CC(N)C(=O)O (stereo not given)
inactive: [5] 0.0947 | [6] 0.0371 | [7] 0.104 | [8] 0.0294

O=C1CCCN1CC#CCN1CCCC1
inactive: [1] 0.118 | [2] 0.083 | [5] 0.183 | [6] 0.101 | [3] 0.114 | [4] 0.0585 | [7] 0.0464 | [8] 0.0329

CCCN1CCCC2Cc3[nH]ncc3CC21 (stereo not given)
inactive: [5] 0.135 | [6] 0.086 | [7] 0.231 | [8] 0.107

C[C@]12N[C@H](Cc3ccccc31)c1ccccc12
inactive: [5] 0.203 | [6] 0.0953 | [7] 0.197 | [8] 0.0712

NC(Cc1cc(O)c(O)cc1O)C(=O)O (stereo not given)
inactive: [5] 0.0775 | [6] 0.133 | [7] 0.0832 | [8] 0.2

COc1ccc(CCN2CCC(Nc3nc4ccccc4n3Cc3ccc(F)cc3)CC2)cc1
inactive: [1] 0.062 | [2] 0.123 | [3] 0.0926 | [4] 0.0206

O=C1C=C2C(=CCOC2O)O1 (stereo not given)
active: [1] -0.259 | [3] -2.95 | [4] -0.992
inactive: [2] 0.05

C[C@@H]1CC[C@@]2(OC1)O[C@H]1[C@@H](O)[C@H]3[C@@H]4CC[C@H]5C[C@@H](O[C@@H]6O[C@H](CO)[C@H](O[C@@H]7O[C@H](CO)C(O)[C@H](O[C@@H]8OC[C@@H](O)[C@H](O)[C@H]8O)[C@H]7O[C@@H]7O[C@H](CO)[C@H](O)[C@H](O[C@@H]8O[C@H](CO)[C@@H](O)[C@H](O)[C@H]8O)[C@H]7O)[C@H](O)[C@H]6O)[C@H](O)C[C@]5(C)[C@H]4CC[C@]3(C)[C@H]1[C@@H]2C (stereo not given in full)
inactive: [1] 0.0473 | [2] 0.00355 | [3] 0.099 | [4] 0.184

N[C@H](CCCCCP(=O)(O)O)C(=O)O
inactive: [5] 0.17 | [6] 0.167 | [7] 0.11 | [8] 0.0282

CN1C2C[C@H](OC(=O)[C@H](CO)c3ccccc3)CC1[C@@H](O)C2 (stereo not given in full)
inactive: [1] 0.0376 | [2] 0.0137 | [3] 0.116 | [4] 0.0715

CC(=O)O[C@@H]1C2CC[C@@H]3C1(C[C@@H](O)[C@@]1(O)[C@@H](C[C@H](O)C1(C)C)[C@]3(C)O)C[C@@]2(C)O (stereo not given in full)
inactive: [1] 0.0646 | [2] 0.00107 | [3] 0.0644 | [4] 0.0594

CC(N)Cc1c[nH]c2ccc(O)cc12 (stereo not given)
inactive: [5] 0.112 | [6] 0.067 | [7] 0.123 | [8] 0.0164

CCC(N)C(O)c1ccc(O)c(O)c1 (stereo not given)
inactive: [1] 0.161 | [2] 0.0223 | [3] 0.0883 | [4] 0.0282

CCCN(CCC)C1CCc2ccc(O)cc2C1 (stereo not given)
inactive: [5] 0.0963 and 0.19 | [6] -0.0245 and 0.098 | [7] 0.141 and 0.0955 | [8] 0.0152 and 0.0367

OCC(O)Cc1ccc2c(c1)OCO2 (stereo not given)
inactive: [1] 0.0615 | [2] 0.039 | [3] 0.0501 | [4] 0.111

CC1=C2[C@H]3OC(=O)[C@@H](C)[C@@H]3CC[C@@]2(C)C=CC1=O
inactive: [1] 0.0669 | [2] -0.0349 | [3] 0.0906 | [4] 0.0161

NNC(N)=O
inactive: [5] 0.0269 | [6] 0.0292 | [7] 0.198 | [8] -0.0477

C=C(C)[C@H]1Cc2c(ccc3c2O[C@@H]2COc4cc(OC)c(OC)cc4[C@@H]2C3=O)O1
active: [1] -1.71 | [2] -0.663 | [5] -0.962 | [6] -0.539 | [3] -2.87 | [4] -1.24 | [7] -2.41 | [8] -0.955 | 25 µM, library screen: screen2, EWS-FLI1 expression: high (no doxycycline) -3.79 | 25 µM, library screen: screen2, EWS-FLI1 expression: low (doxycycline-induced shRNA knockdown) -1.03
inactive: 0.025 µM, library screen: screen2, EWS-FLI1 expression: high (no doxycycline) 0.0593 | 0.025 µM, library screen: screen2, EWS-FLI1 expression: low (doxycycline-induced shRNA knockdown) 0.0961

COC(=O)C1=CCCN(C)C1
inactive: [1] 0.131 | [2] -0.0181 | [5] 0.159 | [6] 0.0966 | [3] 0.24 | [4] 0.114 | [7] 0.0636 | [8] 0.154

Fc1ccc(C(OCCN2CCN(CCCc3ccccc3)CC2)c2ccc(F)cc2)cc1
inactive: [5] 0.187 | [6] 0.0844 | [7] 0.166 | [8] 0.0854

N[C@@H](CCl)C(=O)O
inactive: [5] 0.216 | [6] 0.144 | [7] 0.0457 | [8] 0.0934

CC(C)(C)NCC(O)c1cc(Cl)c(N)c(Cl)c1 (stereo not given)
inactive: [1] 0.0911 | [2] 0.0692 | [3] 0.117 | [4] 0.116

COc1cc2c(cc1OC)[C@@]13CCN4CC5=CCO[C@H]6CC(=O)N2[C@H]1[C@H]6[C@H]5C[C@H]43
inactive: [1] 0.0057 | [2] 0.0368 | [3] 0.098 | [4] -0.0757

NNC(=O)c1ccc(O)cc1
inactive: [5] 0.16 | [6] 0.0709 | [7] 0.151 | [8] 0.0236

COC(=O)[C@@H](N)CCCN=C(N)N[N+](=O)[O-]
inactive: [5] 0.0622 | [6] 0.111 | [7] 0.138 | [8] 0.134

CC(C)=CCCC1(C)C=Cc2c(O)c3c(c(CC=C(C)C)c2O1)OC12C(=CC4CC1C(C)(C)OC2(CC=C(C)C(=O)O)C4O)C3=O (stereo not given)
0.307: [4]
active: [3] -0.137
inactive: [1] 0.1 | [2] 0.0956

C[C@]12CC[C@H]3[C@@H](CC[C@@]45O[C@@H]4C(O)=C(C#N)C[C@]35C)[C@@H]1CC[C@@H]2O
inactive: [13] 0.0389 | [14] 0.0413 | [15] 0.0492 | [16] 0.0305 | [17] 0.0104 | [18] 0.00289 | [19] 0.0626 | [20] 0.0626 | [21] 0.137 | [22] 0.0589 | [23] 0.00564 | [24] 0.0892

NCCCP(=O)(O)O
inactive: [5] 0.138 | [6] 0.0766 | [7] 0.114 | [8] 0.116

CNCCc1c[nH]c2ccc(O)cc12
inactive: [5] 0.0733 | [6] 0.112 | [7] 0.113 | [8] 0.0908

CCC1(CC)C(=O)C=CNC1=O
inactive: [1] 0.0965 | [2] 0.116 | [3] 0.143 | [4] 0.0487

Cc1c(N)nc(C(CC(N)=O)NCC(N)C(N)=O)nc1C(=O)NC(C(=O)NC(C)C(O)C(C)C(=O)NC(C(=O)NCCc1nc(-c2nc(C(=O)NCCC[S+](C)C)cs2)cs1)C(C)O)C(O[C@@H]1O[C@@H](CO)[C@@H](O)[C@H](O)[C@@H]1O[C@H]1O[C@H](CO)[C@@H](O)[C@H](OC(N)=O)[C@@H]1O)c1cnc[nH]1 (stereo not given in full)
inactive: [13] 0.0914 | [14] 0.135 | [15] 0.115 | [16] 0.0961 | [17] 0.0288 | [18] 0.0331 | [19] 0.152 | [20] 0.1 | [21] 0.12 | [22] 0.0649 | [23] 0.18 | [24] 0.0742
